The results in this text go back to publication PMC4336329 (PLoS ONE, 2015).

Out of some 310,000 compounds screened, about 2,200 (0.71%) showed an effect of 50% or more. Effects have a minus sign here. The list shows a part of the results.

The target in the assay is human ether-à-go-go-related gene (hERG) potassium channel (human, UniProt Q12809). In words: primary screen, population patch clamp on CHO cells stably expressing hERG.
human ether-à-go-go-related gene (hERG) potassium channel, sequence (Q12809 whole entry, looked up): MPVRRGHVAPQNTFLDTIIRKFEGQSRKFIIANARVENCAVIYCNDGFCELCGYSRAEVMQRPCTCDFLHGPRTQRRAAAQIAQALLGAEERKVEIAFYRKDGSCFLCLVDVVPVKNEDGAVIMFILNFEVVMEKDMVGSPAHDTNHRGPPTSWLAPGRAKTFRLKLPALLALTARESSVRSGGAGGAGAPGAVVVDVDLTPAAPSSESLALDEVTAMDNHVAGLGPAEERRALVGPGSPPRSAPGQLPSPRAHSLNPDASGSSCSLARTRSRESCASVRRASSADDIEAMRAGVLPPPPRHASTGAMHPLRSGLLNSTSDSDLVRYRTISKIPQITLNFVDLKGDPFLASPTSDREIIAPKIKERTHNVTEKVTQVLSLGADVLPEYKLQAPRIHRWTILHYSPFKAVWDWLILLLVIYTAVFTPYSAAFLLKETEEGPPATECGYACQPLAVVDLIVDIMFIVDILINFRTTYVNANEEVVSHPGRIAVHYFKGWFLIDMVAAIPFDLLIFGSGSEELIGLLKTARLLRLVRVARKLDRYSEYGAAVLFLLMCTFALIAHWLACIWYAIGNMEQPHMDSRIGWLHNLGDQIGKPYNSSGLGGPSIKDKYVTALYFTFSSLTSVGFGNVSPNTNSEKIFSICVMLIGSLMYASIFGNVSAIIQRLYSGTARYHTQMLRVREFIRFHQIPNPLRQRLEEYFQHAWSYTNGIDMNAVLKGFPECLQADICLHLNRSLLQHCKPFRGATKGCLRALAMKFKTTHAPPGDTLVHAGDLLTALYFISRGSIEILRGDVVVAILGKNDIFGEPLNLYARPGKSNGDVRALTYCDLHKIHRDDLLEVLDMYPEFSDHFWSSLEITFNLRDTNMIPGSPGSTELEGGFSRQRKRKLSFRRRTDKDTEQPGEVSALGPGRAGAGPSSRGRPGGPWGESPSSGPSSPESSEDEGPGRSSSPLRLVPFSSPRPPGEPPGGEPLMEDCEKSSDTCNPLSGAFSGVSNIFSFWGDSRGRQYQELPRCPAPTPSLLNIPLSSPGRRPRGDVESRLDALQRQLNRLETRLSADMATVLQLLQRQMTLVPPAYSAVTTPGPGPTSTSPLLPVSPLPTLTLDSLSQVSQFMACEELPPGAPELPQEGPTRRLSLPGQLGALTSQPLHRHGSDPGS
For the compound `COc1ccc(OC)c(NC(=O)c2cnc3n(c2=O)CCS3)c1`, the “hERG current change (%, negative = inhibition) at 1uM” value is recorded as 7.6%. The same measure for `N#Cc1c(NC(=O)CSc2n[nH]c(Cc3ccccc3)n2)oc(-c2ccccc2)c1-c1ccccc1`: 7.79%; for `O=C(NCCc1ccc(Cl)cc1)C1CCCN(c2ncnc3c2nc2n3CCCCC2)C1` (stereo not drawn): -8.07%; for `Cc1ccc(C(=O)NCC(=O)OCC(=O)NCCNC(=O)COC(=O)CNC(=O)c2ccc(C)cc2)cc1`: 9.41%. The same measure for `CC(C)OC(=O)c1sc2nc(-c3ccccc3)ccc2c1N`: 13.2%. Under `COc1ccccc1CC(=O)N1CCN(c2ccc([N+](=O)[O-])cc2)CC1` stands -8.15%. With `COc1cc(C2Nc3ccccc3C(=O)N2NS(C)(=O)=O)c([N+](=O)[O-])cc1OC` (stereo not drawn), the “hERG current change (%, negative = inhibition) at 1uM” value was found to be 6.71%. Under `COc1cccc(CNC(=O)c2cc(C3CC3)nc3c2cnn3C(C)C)c1` stands -0.644%; under `Cc1ccc(-n2c(N)c(C(=O)NCc3cccnc3)sc2=S)cc1`, 17.7%; under `Cc1ccc(OC(=O)c2oc3ccc(F)cc3c2C)c(C)c1`, -0.814%.

For the compound `CC(=O)c1ccc(NC(=O)CSC2=NS(=O)(=O)c3cc(Cl)ccc3N2)cc1`, the “hERG current change (%, negative = inhibition) at 1uM” value is 17%. On to `O=C(COC(=O)/C=C/c1nc2ccccc2s1)Nc1cccc(Cl)c1Cl`, for which the “hERG current change (%, negative = inhibition) at 1uM” value was 9.67%. The same measure for `O=[N+]([O-])c1cccc2c(N3CCOCC3)ccnc12`: 10%; for `CC(C)(C)N1CC(C(=O)O)CC1=O` (stereo not drawn): 16.8%; for `Nc1ccc(Cl)cc1C(=O)c1ccccc1Cl`: 14%. Under `C/C(NC1CCCCC1)=C(/C#N)C(=O)NCCN1CCOCC1` stands 5.52%; under `COc1ccccc1C(=O)NC(C)c1cccc2ccccc12` (stereo not drawn), 12.4%. The same measure for `CCOc1ccc2ccccc2c1CNc1nnnn1CC`: 4.39%; for `CC(=O)c1c(C(C)=O)c(C)n(-c2nc(-c3ccc(C)c(C)c3)c(C)s2)c1C`: 17%. As for `N#Cc1nc(-c2ccccc2F)oc1N1CCCC1`, the “hERG current change (%, negative = inhibition) at 1uM” value amounted to 5.59%. Under `Cc1ccc(C(=O)NCCC(=O)N2CCC3(CC2)NCCc2[nH]cnc23)cc1C` stands 9.47%. Under `CCCN1C(=O)/C(=C/c2ccccc2OCc2ccc(C(=O)O)cc2)NC1=S` stands 8.39%.

As for `CCOc1ccc(N2C(=O)CC(Sc3n[nH]c(-c4ccccc4)n3)C2=O)cc1` (stereo not drawn), the “hERG current change (%, negative = inhibition) at 1uM” value is reported as 14.2%.

With `O=C(Cc1csc(Nc2nc(=S)[nH]c3ccccc23)n1)N1CCN(c2cccc(Cl)c2)CC1`, the “hERG current change (%, negative = inhibition) at 1uM” value was determined as 11.8%.

Regarding `CCn1c(SCC(=O)NC2CCCC2)nnc1C(C)NC(=O)c1ccccc1F` (stereo not drawn), the “hERG current change (%, negative = inhibition) at 1uM” value is reported as 19.8%.

As to `Cc1ccc(S(=O)(=O)N2CCCC2C(=O)N(C)Cc2cccs2)cc1` (stereo not drawn), the “hERG current change (%, negative = inhibition) at 1uM” value is listed as -2.75%. The same measure for `Cc1ccc(C)c2c3c([nH]c12)-c1nonc1CC3`: 9.91%. As to `O=C(O)C(=O)O.O=C(c1ccccc1)c1ccc(OCC(O)CNCc2cccc(Cl)c2)cc1` (stereo not drawn), the “hERG current change (%, negative = inhibition) at 1uM” value stood at 9.18%. Take `COC(=O)c1ncn(C2OC(COC(C)=O)C(OC(C)=O)C2OC(C)=O)n1` (stereo not drawn): the “hERG current change (%, negative = inhibition) at 1uM” value is given as 0.268%.

As to `CCN1C(=O)[C@H]2[C@@H](c3ccc(-c4ccc(Cl)c(Cl)c4)c(OC)c3)N[C@@](Cc3ccccc3)(C(=O)OC)[C@H]2C1=O.O=C(O)C(F)(F)F`, the “hERG current change (%, negative = inhibition) at 1uM” value came to 16.8%. The same measure for `COC1=C(Nc2ccc(C)cc2)C(=O)c2ccccc2C1=O`: 7.51%; for `Cc1ccc(/C=N/Nc2ncc(Cl)cc2Cl)s1`: 10.4%. On to `O=C1c2nc3cc(-c4ccco4)[nH]n3c(=O)c2CN1C1CCCCC1`, for which the “hERG current change (%, negative = inhibition) at 1uM” value is 10.3%.

In the case of `Cc1cccc(NC(=O)Cc2coc3ccc4ccccc4c23)n1`, the “hERG current change (%, negative = inhibition) at 1uM” value turned out to be 3.43%.

Consider `CN(CCc1ccccn1)Cc1ccc(Cl)cc1`, for which the “hERG current change (%, negative = inhibition) at 1uM” value is -24.6%. As for `CCOc1ccc(/C=N/NC(=O)Cc2ccccc2)cc1CN1CC2CC(C1)c1cccc(=O)n1C2` (stereo not drawn), the “hERG current change (%, negative = inhibition) at 1uM” value is given as 11%. For the compound `C=CCn1c(SCc2csc(-c3ccc(Cl)cc3)n2)nnc1-c1ccccc1OC`, the “hERG current change (%, negative = inhibition) at 1uM” value is 6.88%.

As for `Cn1cccc1/C=N/NC(=O)CNc1cccc2ccccc12`, the “hERG current change (%, negative = inhibition) at 1uM” value came out at 7.77%.

Consider `Cc1nn(-c2ccc(Cl)cc2)c2[nH]c(=O)c(CNCc3ccc4c(c3)OCO4)cc12`, for which the “hERG current change (%, negative = inhibition) at 1uM” value is listed as -20.9%. Under `CCCCN(C)C(=O)C(Cc1ccccc1)NS(=O)(=O)c1ccc2c(c1)CCC(=O)N2` (stereo not drawn) stands -7.18%; under `O=S(=O)(Nc1ccon1)c1cc(Cl)ccc1Cl`, 13.1%; under `CC(C)c1nnc(NC(=O)c2c(O)c3cccc4c3n(c2=O)CCC4)s1`, 13.9%.

As for `Cc1cccc(NS(=O)(=O)c2cn(C)c(=O)n(C)c2=O)c1C`, the “hERG current change (%, negative = inhibition) at 1uM” value turned out to be 10.3%. For `N/C(=N\O)c1ccncc1`, the “hERG current change (%, negative = inhibition) at 1uM” value worked out at 13.8%. `CCC(C(=O)OCC(=O)N(CC)c1c(N)n(Cc2ccccc2)c(=O)[nH]c1=O)c1ccccc1` (stereo not drawn): the “hERG current change (%, negative = inhibition) at 1uM” value was 0.82%.

Consider `O=C(Nc1ccc(Cl)cc1)c1cccc(N2C(=O)C3C4CCC(C4)C3C2=O)c1` (stereo not drawn), for which the “hERG current change (%, negative = inhibition) at 1uM” value is 11.7%.

For the compound `CCOC(=O)N1CCN(c2c(NCc3ccccc3Cl)c(=O)c2=O)CC1`, the “hERG current change (%, negative = inhibition) at 1uM” value came to 11.9%.

For the compound `O=C(NC(=S)Nc1nc2ccc(F)cc2s1)c1ccco1`, the “hERG current change (%, negative = inhibition) at 1uM” value was 7.83%. Under `CCOc1cc(CN2CCN(c3cccc(C(F)(F)F)c3)CC2)ccc1OC` stands -10.1%; under `COc1cc(CC(=O)NCCc2ccc(S(N)(=O)=O)cc2)cc(OC)c1OC`, 12.6%. For `Cn1c(=O)c2ccccc2n2c(=S)[nH]nc12`, the “hERG current change (%, negative = inhibition) at 1uM” value is recorded as 19.2%. The same measure for `O=C(CSc1nnnn1-c1cccnc1)Nc1ccccc1F`: 22%. Under `CCn1c2ccccc2c2cc(N=C3SC(CC(=O)Nc4ccccc4OC)C(=O)N3CCOC)ccc21` (stereo not drawn) stands 3.61%. Consider `CCN(C(=O)COc1nc(C)cc(C)c1C#N)c1ccccc1`, for which the “hERG current change (%, negative = inhibition) at 1uM” value is given as 7.37%. Under `COc1ccc(-c2cc(C(=O)OCC(=O)NC(C)C)c3ccccc3n2)cc1` stands 0.906%. The same measure for `Cc1ccc(/C=C/c2nnc(-c3ccc(C)cc3)o2)cc1`: 7.46%. Under `O=C1Nc2cc(C(=O)NCCCN3CCCC3)ccc2S/C1=C\c1ccccc1` stands -19.7%.

For the compound `CCN(CC)CCCNC(=S)N1CCn2c(nc3ccccc32)C1`, the “hERG current change (%, negative = inhibition) at 1uM” value was determined as 9.71%. Under `Cc1ccc2oc(=O)c3cnn(CC(=O)N(CCCN4CCOCC4)Cc4ccco4)c3c2c1` stands -13.2%; under `O=C(O)C(=O)O.O=[N+]([O-])c1ccccc1CNCCc1ccc(F)cc1`, -17.1%.

Turning to `O=C(c1cc(-c2ccco2)nc2ccccc12)N1CCN(c2ccc(F)cc2)CC1`, the “hERG current change (%, negative = inhibition) at 1uM” value was determined as 6.36%.

`COc1cccc(Nc2nnc(SCC(=O)N3CC(C)OC(C)C3)s2)c1` (stereo not drawn): the “hERG current change (%, negative = inhibition) at 1uM” value turned out to be 8.49%.

As for `C=CCn1c(/N=C/c2ccc(OC)cc2)nc2ccccc21`, the “hERG current change (%, negative = inhibition) at 1uM” value came to 11.2%. The same measure for `O=c1ccnc(SCCC(F)=C(F)F)[nH]1`: 16.9%. The same measure for `CN(C(N)=S)c1ccccc1`: 13.6%; for `CCOC(=O)N1CCC(NC(=O)CSCc2nc(-c3ccc(C)cc3)oc2C)CC1`: 6.59%; for `CSc1cc(C)nc(N(C)C(C)=O)n1`: 23.1%. `COc1nc(Cl)cn(-c2ccc(Cl)cc2)c1=O`: the “hERG current change (%, negative = inhibition) at 1uM” value is on record as 14.4%.

With `COc1cc(OC)cc(C(=O)NC(=S)Nc2ccc(N3CCCC3)cc2)c1`, the “hERG current change (%, negative = inhibition) at 1uM” value was 1.75%.

As to `Cc1cc(C)nc(-n2nc(C)c3c(C(F)(F)F)cc(=O)[nH]c32)n1`, the “hERG current change (%, negative = inhibition) at 1uM” value is 6.54%.

`COc1ccc(-c2cc(=O)oc3c(C)c(OC(C)C(C)=O)ccc23)cc1` (stereo not drawn): the “hERG current change (%, negative = inhibition) at 1uM” value turned out to be 16.4%.

For `CSc1ncccc1C(=O)OCC(=O)NCc1ccc2c(c1)OCO2`, the “hERG current change (%, negative = inhibition) at 1uM” value was determined as 8.92%. Under `CSCC[C@H](N)C(=O)N1CCC(C(=O)N[C@H](C)C(=O)NC(C)c2ccccc2)CC1` (stereo partly drawn) stands 8.95%; under `CCOC(=O)c1ccc(NC(=O)c2c(N)n(C)c(=O)[nH]c2=O)cc1`, 12.8%; under `COc1cc(C)c(NC(=O)C(=S)NCCc2ccccc2)cc1C`, 7.04%. The same measure for `COc1ccc2c(=O)c3c(=O)n(-c4ccccc4)c(-c4ccco4)nc3oc2c1`: 13.3%; for `COc1ccc(CC(=O)OCC(=O)Nc2ccc(Cl)cn2)cc1`: 2.4%; for `COC(=O)c1ccccc1NC1c2ccccc2C(=O)N1c1cccnc1` (stereo not drawn): 8.65%.

Take `CCOc1cccc(SCc2noc(C(=O)NCC3CCCO3)c2C(=O)O)c1` (stereo not drawn): the “hERG current change (%, negative = inhibition) at 1uM” value came out at 23.7%. Turning to `CC1(C)CC(N2CCN(C(c3ccccc3)c3ccccc3)CC2)=CC(=[N+]2CCCCC2)C1.[I-]`, the “hERG current change (%, negative = inhibition) at 1uM” value is -26.4%. With `CN(CCNC(=O)c1cn(C)c2ccc(S(=O)(=O)N(C)C)cc2c1=O)CCc1ccccc1`, the “hERG current change (%, negative = inhibition) at 1uM” value is given as -8.87%. With `Cc1cccn2c(=O)c3cc(C#N)c(=O)n(CCCN4CCOCC4)c3nc12`, the “hERG current change (%, negative = inhibition) at 1uM” value was -21.2%. Consider `O=C(COC(=O)C1=COCCO1)Nc1cc(S(=O)(=O)N2CCCCC2)ccc1Cl`, for which the “hERG current change (%, negative = inhibition) at 1uM” value amounted to 8.24%. The same measure for `O=S(=O)(c1cc(Cl)ccc1Cl)n1cccn1`: 11.6%; for `O=C(COc1ccc(S(=O)(=O)N2CCOCC2)cc1)Nc1ccc2c(c1)OCCO2`: -10%; for `COc1cccc(/C=C/C(=C2/C(=O)N(c3ccccc3)N=C2C)c2ccc(Br)cc2)c1OC`: 8.79%. Turning to `NNC(=O)CNC(c1ccccc1)c1cc(Br)ccc1NC(=O)c1ccc(Br)cc1` (stereo not drawn), the “hERG current change (%, negative = inhibition) at 1uM” value was determined as 3.33%.
